Source: the antibiotic and cytotoxicity screens of Wong et al. (2023)
The list shows a part of the results.

tested on: HSkMC (human skeletal muscle cells); experiment: cytotoxicity call (relative viability < 0.9); conditions: 10 µM

| SMILES | cytotoxicity call |
| --- | --- |
| COc1ccc(cc1)NC(=O)N1C[C@]2(C1)CN([C@@H](CO)c1[nH]c3cc(ccc3c12)OC)C(=O)CN1CCOCC1 | inactive |
| C[C@H](CO)N1C[C@H](C)[C@H](CN(C)Cc2ccc(Cl)c(Cl)c2)Oc2c(NC(=O)Nc3ccc(C(F)(F)F)cc3)cccc2C1=O | inactive |
| COCC#Cc1ccc2c(c1)O[C@@H](CN(C)S(=O)(=O)c1cccc(F)c1)[C@@H](C)CN([C@H](C)CO)S2(=O)=O | inactive |
| C[C@@H]1CCCCO[C@@H](CN(C)Cc2ccc3c(c2)OCO3)[C@@H](C)CN([C@@H](C)CO)C(=O)c2cc(NS(=O)(=O)c3ccc(F)cc3)ccc2O1 | inactive |
| C[C@H]1CN([C@@H](C)CO)C(=O)Cc2cc(NC(=O)Cn3cnnn3)ccc2O[C@@H]1CN(C)C(=O)Nc1ccc2c(c1)OCO2 | inactive |
| C[C@@H]1NC(=O)[C@@H](N)CNC(=O)[C@H]([C@H]2CCN=C(N)N2)NC(=O)/C(=C\NC(N)=O)NC(=O)[C@H](CNC(=O)C[C@@H](N)CCCN)NC1=O | inactive |
| COc1ccc(CN(CCN(C)C)c2ncccn2)cc1.Cl | inactive |
| C[C@@H]1CN([C@H](C)CO)C(=O)c2cccc(NC(=O)c3cnccn3)c2O[C@H]1CN(C)S(=O)(=O)c1ccccc1 | inactive |
| C[C@@H]1CCCCO[C@H](CN(C)C(=O)Nc2ccccc2)[C@@H](C)CN([C@H](C)CO)C(=O)c2cc(NS(=O)(=O)c3ccc(Cl)cc3)ccc2O1 | inactive |
| COc1ccc(NC(=O)Nc2ccc3c(c2)C(=O)N([C@@H](C)CO)C[C@H](C)[C@H](CN(C)S(=O)(=O)c2ccc(OC)cc2)OCCCC[C@@H](C)O3)cc1 | inactive |
| Cc1cc2nc3c(=O)[nH]c(=O)nc-3n(C[C@H](O)[C@H](O)[C@H](O)COP(=O)(O)OP(=O)(O)OC[C@H]3O[C@@H](n4cnc5c(N)ncnc54)[C@H](O)[C@@H]3O)c2cc1C | inactive |
| Cc1nc(=O)c2cccc(O)c2[nH]1 | inactive |
| COc1ccc(S(=O)(=O)Nc2ccc3c(c2)CC(=O)N([C@H](C)CO)C[C@H](C)[C@@H](CN(C)C)O3)cc1 | inactive |
| CC(C)NC(=O)Nc1ccc2c(c1)C(=O)N([C@H](C)CO)C[C@H](C)[C@@H](CN(C)C(=O)Nc1ccc(F)cc1)OCCCC[C@@H](C)O2 | inactive |
| CCOC(=O)C(C)(C)Oc1ccc(Cl)cc1 | inactive |
| Clc1ccc2nc(Cl)cc(-c3ccccc3)c2c1 | inactive |
| COC(=O)[C@]12CCC(C)(C)C[C@H]1[C@H]1C(=O)C=C3[C@@]4(C)C=C(C#N)C(=O)C(C)(C)[C@@H]4CC[C@@]3(C)[C@]1(C)CC2 | active |
| C[C@@H]1CN([C@H](C)CO)C(=O)c2cc(NC(=O)Nc3cccc4ccccc34)ccc2O[C@@H](C)CCCCO[C@H]1CN(C)Cc1ccc(C(F)(F)F)cc1 | inactive |
| Cc1noc(C)c1NC(=O)Nc1ccc2c(c1)CC(=O)N([C@H](C)CO)C[C@H](C)[C@H](CN(C)C(=O)NC(C)C)O2 | inactive |
| O=C(O)c1c[nH]ccc1=O | inactive |
| C[C@@H]1CCCCO[C@H](CN(C)Cc2ccc(C(=O)O)cc2)[C@@H](C)CN([C@H](C)CO)C(=O)c2cc(NC(=O)Nc3ccc4c(c3)OCO4)ccc2O1 | inactive |
| O=C(C[C@@H]1C=C[C@@H](NC(=O)Cc2ccccn2)[C@H](CO)O1)NCCCN1CCOCC1 | inactive |
| CC(C)NC(=O)N(C)C[C@@H]1Oc2ccc(NS(=O)(=O)c3ccc(Cl)cc3)cc2CC(=O)N([C@@H](C)CO)C[C@H]1C | inactive |
| COc1ccc(CN(C)C[C@H]2Oc3ccc(NS(=O)(=O)c4cn(C)cn4)cc3C(=O)N([C@@H](C)CO)C[C@H]2C)cc1 | inactive |
| Cc1noc(C)c1NC(=O)N(C)C[C@H]1Oc2ncc(C#CCC(C)C)cc2C(=O)N([C@H](C)CO)C[C@H]1C | inactive |
| C[C@@H]1CCCCO[C@@H](CN(C)S(=O)(=O)c2ccc(Cl)cc2)[C@H](C)CN([C@@H](C)CO)C(=O)c2cc(NC(=O)Nc3ccc(C(F)(F)F)cc3)ccc2O1 | inactive |
| COc1ccc2c3c([nH]c2c1)[C@@H](CO)N(C[C@]13CCN(CC1)Cc1nccs1)C(=O)C1CCOCC1 | inactive |
| CC(C)Cn1c(=O)n(C)c(=O)c2[nH]cnc21 | inactive |
| CNC(=O)C[C@@H]1CC[C@H]2[C@@H](COC[C@H](O)CN2C(=O)Nc2cccc(OC)c2)O1 | inactive |
| COc1ccc(C2CC(=O)c3c(O)cc(OC4OC(COC5OC(C)C(O)C(O)C5O)C(O)C(O)C4O)cc3O2)cc1O (centres undefined) | inactive |

tested on: HepG2; experiment: cytotoxicity call (relative viability < 0.9); conditions: 10 µM

| SMILES | cytotoxicity call |
| --- | --- |
| O=C(C[C@@H]1CC[C@@H]2[C@H](COC[C@@H](O)CN2S(=O)(=O)c2ccc(F)cc2)O1)NCCN1CCCCC1 | inactive |
| NCCc1[nH]cnc1-c1cccs1 | inactive |
| CC(C)CNC(=O)[C@@]1(c2ccc([N+](=O)[O-])cc2)CC(=O)N(CC23CC4CC(CC(C4)C2)C3)[C@@H]1c1ccc(CO)cc1I | inactive |
| CNC1(C)C2CCC(C2)C1(C)C.Cl (centres undefined) | inactive |
| Nc1nc(-c2ccccc2)cc[n+]1[O-] | inactive |
| Cc1ccc(C(=O)Nc2ccc(S(=O)(=O)[O-])c3cc(S(=O)(=O)[O-])cc(S(=O)(=O)[O-])c23)cc1NC(=O)c1cccc(NC(=O)Nc2cccc(C(=O)Nc3cc(C(=O)Nc4ccc(S(=O)(=O)[O-])c5cc(S(=O)(=O)[O-])cc(S(=O)(=O)[O-])c45)ccc3C)c2)c1.[Na+].[Na+].[Na+].[Na+].[Na+].[Na+] | inactive |
| O=C(c1ccncc1)N1C[C@H]2[C@@H](c3ccccc31)[C@@H](CO)N2C(=O)CN1CCOCC1 | inactive |
| CN(C)c1ccc(O)c2c1C[C@H]1C[C@H]3[C@H](N(C)C)C(=O)[C@@H](C(N)=O)C(=O)[C@@]3(O)C(=O)[C@H]1C2=O | inactive |
| C[C@@H]1CCCCO[C@@H](CN(C)C(=O)Nc2ccc3c(c2)OCO3)[C@H](C)CN([C@@H](C)CO)C(=O)c2cc(NC(=O)Nc3cccc4ccccc34)ccc2O1 | inactive |
| COc1ccc(CN(C)C[C@H]2OCCCC[C@H](C)Oc3ccc(NC(=O)CCC(F)(F)F)cc3C(=O)N([C@H](C)CO)C[C@@H]2C)cc1 | inactive |
| COc1ccc(cc1)NC(=O)N1C[C@]2(C1)CN([C@@H](CO)c1[nH]c3cc(ccc3c12)OC)C(=O)CN1CCOCC1 | inactive |
| C[C@H](CO)N1C[C@H](C)[C@H](CN(C)Cc2ccc(Cl)c(Cl)c2)Oc2c(NC(=O)Nc3ccc(C(F)(F)F)cc3)cccc2C1=O | inactive |
| COCC#Cc1ccc2c(c1)O[C@@H](CN(C)S(=O)(=O)c1cccc(F)c1)[C@@H](C)CN([C@H](C)CO)S2(=O)=O | inactive |
| C[C@@H]1CCCCO[C@@H](CN(C)Cc2ccc3c(c2)OCO3)[C@@H](C)CN([C@@H](C)CO)C(=O)c2cc(NS(=O)(=O)c3ccc(F)cc3)ccc2O1 | active |
| C[C@H]1CN([C@@H](C)CO)C(=O)Cc2cc(NC(=O)Cn3cnnn3)ccc2O[C@@H]1CN(C)C(=O)Nc1ccc2c(c1)OCO2 | inactive |
| C[C@@H]1NC(=O)[C@@H](N)CNC(=O)[C@H]([C@H]2CCN=C(N)N2)NC(=O)/C(=C\NC(N)=O)NC(=O)[C@H](CNC(=O)C[C@@H](N)CCCN)NC1=O | inactive |
| COc1ccc(CN(CCN(C)C)c2ncccn2)cc1.Cl | inactive |

| SMILES | cytotoxicity call |
| --- | --- |
| C[C@@H]1CN([C@H](C)CO)C(=O)c2cccc(NC(=O)c3cnccn3)c2O[C@H]1CN(C)S(=O)(=O)c1ccccc1 | inactive |
| C[C@@H]1CCCCO[C@H](CN(C)C(=O)Nc2ccccc2)[C@@H](C)CN([C@H](C)CO)C(=O)c2cc(NS(=O)(=O)c3ccc(Cl)cc3)ccc2O1 | inactive |
| COc1ccc(NC(=O)Nc2ccc3c(c2)C(=O)N([C@@H](C)CO)C[C@H](C)[C@H](CN(C)S(=O)(=O)c2ccc(OC)cc2)OCCCC[C@@H](C)O3)cc1 | inactive |
| Cc1cc2nc3c(=O)[nH]c(=O)nc-3n(C[C@H](O)[C@H](O)[C@H](O)COP(=O)(O)OP(=O)(O)OC[C@H]3O[C@@H](n4cnc5c(N)ncnc54)[C@H](O)[C@@H]3O)c2cc1C | inactive |
| Cc1nc(=O)c2cccc(O)c2[nH]1 | inactive |
| COc1ccc(S(=O)(=O)Nc2ccc3c(c2)CC(=O)N([C@H](C)CO)C[C@H](C)[C@@H](CN(C)C)O3)cc1 | inactive |
| CC(C)NC(=O)Nc1ccc2c(c1)C(=O)N([C@H](C)CO)C[C@H](C)[C@@H](CN(C)C(=O)Nc1ccc(F)cc1)OCCCC[C@@H](C)O2 | inactive |
| CCOC(=O)C(C)(C)Oc1ccc(Cl)cc1 | inactive |
| Clc1ccc2nc(Cl)cc(-c3ccccc3)c2c1 | inactive |
| COC(=O)[C@]12CCC(C)(C)C[C@H]1[C@H]1C(=O)C=C3[C@@]4(C)C=C(C#N)C(=O)C(C)(C)[C@@H]4CC[C@@]3(C)[C@]1(C)CC2 | active |
| C[C@@H]1CN([C@H](C)CO)C(=O)c2cc(NC(=O)Nc3cccc4ccccc34)ccc2O[C@@H](C)CCCCO[C@H]1CN(C)Cc1ccc(C(F)(F)F)cc1 | inactive |
| Cc1noc(C)c1NC(=O)Nc1ccc2c(c1)CC(=O)N([C@H](C)CO)C[C@H](C)[C@H](CN(C)C(=O)NC(C)C)O2 | inactive |
| O=C(O)c1c[nH]ccc1=O | inactive |
| C[C@@H]1CCCCO[C@H](CN(C)Cc2ccc(C(=O)O)cc2)[C@@H](C)CN([C@H](C)CO)C(=O)c2cc(NC(=O)Nc3ccc4c(c3)OCO4)ccc2O1 | inactive |
| O=C(C[C@@H]1C=C[C@@H](NC(=O)Cc2ccccn2)[C@H](CO)O1)NCCCN1CCOCC1 | inactive |
| CC(C)NC(=O)N(C)C[C@@H]1Oc2ccc(NS(=O)(=O)c3ccc(Cl)cc3)cc2CC(=O)N([C@@H](C)CO)C[C@H]1C | inactive |
| COc1ccc(CN(C)C[C@H]2Oc3ccc(NS(=O)(=O)c4cn(C)cn4)cc3C(=O)N([C@@H](C)CO)C[C@H]2C)cc1 | inactive |
